Test results from ChEMBL document CHEMBL5308541, “MAIP: An Open-Source Tool to Enrich High-Throughput Screening Output and Identify Novel, Druglike Molecules with Antimalarial Activity” (ACS Med Chem Lett, 2023).
Among all 150,000 compounds or so, about 540 (0.36%) showed an effect of 50% or more. Some of the results follow.

What follows are compounds tested on Plasmodium falciparum (assay: Primary screen in NF54 nanoGlo assay, in single point, at 2uM, 72h; a lower Z score goes with more inhibition). Conditions: timepoint 72 hour.
Assay type: functional, Erythrocyte

| SMILES | % Inhibition | Z score |
| --- | --- | --- |
| Cn1c(CN2CCCC2)nnc1C1CCN(Cc2ccc3[nH]ccc3c2)CC1 | 1% | -0.19 |
| O=C(NC1CCN(CC(F)(F)F)CC1)c1cc(-c2ccncc2)on1 | -21% | 4.23 |
| CCCN(Cc1ccc2cn[nH]c2c1)C1CCN(c2cc(C)nc(C)n2)CC1 | 1% | -0.09 |
| O=C(NC1COCC1Cc1ccnc2ccccc12)C1(c2ccc(Cl)cc2)CCC1 (configuration not stated) | -13% | 2.21 |
| O=c1[nH]c(NC[C@H](O)c2ccc(OC(F)F)cc2)nc2ccccc12 | -1% | 0.29 |
| CCc1nc(C#N)c(N2CCN(c3cc(Nc4ccc(C)cc4)ncn3)CC2)o1 | -17% | 2.59 |
| FC(F)(F)c1nc(NCCN2CCN(c3ncccn3)CC2)c2nc[nH]c2n1 | -9% | 1.57 |
| O=C(OCc1ccccc1)N1CCO[C@H](c2nc(-c3c[nH]c4ncccc34)cs2)C1 | -2% | 0.46 |
| CN1CCN(c2ccc(CNC3CCC(N)CC3)cn2)CC1 (configuration not stated) | -5% | 1.08 |
| CCN(C(=O)c1ccc2c(c1)NC(=O)C2)c1ccc2[nH]ccc2c1 | -1% | 0.19 |
| Nc1ccnc2ccc(C(F)(F)F)cc12 | 2% | -0.4 |
| Cc1noc(C)c1C(C)(C)NC(=O)Cc1ccc2c(c1)CCCC2 | 2% | -0.3 |
| Cn1cc(Nc2cccc(NC(=O)c3ccc4[nH]cnc4c3)c2)cn1 | -4% | 0.92 |
| CN(C(=O)Nc1cccc(Cl)c1F)C1COCC1O (configuration not stated) | 0% | 0.09 |
| Cc1cc(NCCCN2CCC[C@H](O)C2)c2cc(F)ccc2n1 | 24% | -4.1 |
| CCc1cccc2c(C(=O)[C@H](Nc3ccc(NC(=O)CN4CCOCC4)cc3)c3ccccc3)c[nH]c12 | -4% | 0.6 |
| CN1CCCCC1CN1CCN(c2cc(N3CCCC(CO)C3)ncn2)CC1 (configuration not stated) | -8% | 1.49 |
| Cc1noc(-c2ccccc2)c1NC(=O)c1cccc(Nc2cnn(C)c2)c1 | 0% | 0.08 |
| CCN(Cc1cc(F)ccc1-n1cccn1)CC1CCN(C2CCN(C)CC2)CC1 | 16% | -2.76 |
| CC(C)[C@H](NC1CCN(CCC(F)(F)F)CC1)c1nc(-c2cccnc2)no1 | -8% | 1.39 |
| NC(=O)Cn1cc(-c2cccc3c2CCCC3)nn1 | 1% | -0.12 |

| SMILES | % Inhibition | Z score |
| --- | --- | --- |
| OC[C@H]1CCCCN1CCNCc1coc(-c2ccccc2)n1 | -4% | 0.7 |
| CNc1nc(N[C@H]2CCCN(Cc3ccc(CC(C)C)cc3)C2)ncc1F | -8% | 1.62 |
| Cc1ccccc1-c1cccc(CNCCCN2CCC[C@H](O)C2)c1 | 37% | -7.91 |
| Nc1nc(NCc2ccccc2)nc(N2C3CCNCC2CC3)n1 (configuration not stated) | 1% | -0.31 |
| CCc1c(C(=O)NCC2([C@H](O)c3ccccc3)CC2)cnn1C(CC)CC | -11% | 2.15 |
| COC1CCN(C2CCCC2NC(=O)Nc2cc(-c3cccnc3)ccc2C)C1 (configuration not stated) | 2% | -0.27 |
| CCCNc1cc(N2CCC[C@H](CCC(=O)NCCN3CCCCCC3)C2)ncn1 | 11% | -2.11 |
| FC(F)(F)c1ccc(O[C@H]2CCN(c3ccnc(C(F)(F)F)c3)C2)nc1 | -10% | 1.57 |
| O=C(C1CCCCC1)N1CC[C@H](Nc2nc(C(F)(F)F)nc3nc[nH]c23)C1 | -7% | 1.2 |
| COCCN1CC[C@H](CNC2CCN(c3ncc4ccc(F)cc4n3)CC2)C1 | 58% | -10.01 |
| CC(c1ccccc1)N1CCC(NC2CC3CCCC(C2)N3C)C1 (configuration not stated) | 15% | -2.69 |
| FC(F)(F)c1cc(-c2noc(-c3ccc(Nc4cccnc4)cc3)n2)ccn1 | -9% | 1.57 |
| CCN1CCC(N(CC2CCN(Cc3ccccc3C)CC2)C[C@H]2CCCO2)CC1 | 1% | -0.12 |
| C#CCOc1ccc(CNC2CCN(CC(F)F)CC2)cc1 | -8% | 1.71 |
| CC1(N2CCOCC2)CCC(Nc2cccc(-c3cnco3)c2)CC1 (configuration not stated) | -5% | 0.71 |
| CCCCN1CCC(CNC(=O)c2cccc([C@H]3CCNC3)c2)CC1 | -9% | 1.55 |
| CCS(=O)(=O)c1ccc(O)c(Nc2ncnc3cc(OC)c(OC)cc23)c1 | 6% | -1.11 |
| CC1CN(c2ccc(Nc3ncncc3-c3ccccc3)cn2)CC(C)O1 (configuration not stated) | -3% | 0.44 |
| CCN(Cc1noc(C2CCC2)n1)C(=O)NCc1cc2ccccc2o1 | -13% | 2.59 |
| COc1ccc(C2N3CCc4ccccc4C3CN2S(=O)(=O)c2ccc(OC)c3ncccc23)cc1 (configuration not stated) | 2% | -0.3 |
| OCCN1CCN(C2CCN(Cc3cnn4cccnc34)CC2)CC1 | -6% | 1.08 |

| SMILES | % Inhibition | Z score |
| --- | --- | --- |
| FC1(F)CC[C@H](Nc2nccc3[nH]cnc23)C1 | 8% | -1.52 |
| NCCc1nc(NCCc2nc(-c3ccccn3)no2)c2ccccc2n1 | -5% | 0.94 |
| COc1ccc(CN(Cc2cc(=O)n3nc(-c4ccccc4)sc3n2)c2ccc(Cl)cc2)cc1 | -10% | 1.75 |
| OC[C@H]1C=C[C@@H](Nc2ncc(Cl)c(N[C@@H]3C=C[C@H](CO)C3)n2)C1 | 6% | -1.35 |
| O=C1CN2CCN(S(=O)(=O)c3cccc(Cl)c3)C[C@@H]2COc2ccc(-c3ccc(F)cc3F)cc2N1 | -5% | 0.8 |
| C[C@@H](c1cc2ccccc2o1)N(C)C(=O)c1csc(COc2ccc(F)cc2)n1 | -14% | 2.08 |
| COc1ccc([C@@H](CNc2ncccc2-c2nc(C)no2)c2c[nH]c3ccccc23)cc1 | -6% | 1.09 |
| C[C@H]1CN(c2cccc3cnccc23)CCN1c1ncnc2[nH]cnc12 | -12% | 2.62 |
| CCN(C)C1(CNc2ncnc3cc[nH]c23)CCCCC1 | -1% | 0.15 |
| CC1(C)C[C@@H](O)CCN(C(=O)c2ccc(NC3=NCCC3)cc2)C1 | -6% | 1.16 |
| CC(C)N(Cc1ccccc1)C(=O)C(=O)c1cn(CC(=O)N2CCOCC2)c2ccccc12 | -8% | 1.15 |
| CCC1(NC(=O)Nc2ccncc2Br)CCOCC1 | -2% | 0.43 |
| CCN1CCN(C(=O)CCC2CCN(Cc3cccc4cnccc34)CC2)CC1 | 4% | -0.61 |
| CC(C)CC(=O)Nc1ccc(NCC(=O)Nc2cccc3c2N=S=N3)cc1 | -7% | 1.01 |
| O=C(NCCNc1nccc(N2CCC[C@H](O)C2)n1)c1ccncc1 | -1% | 0.17 |
| Cc1nonc1CN(C)Cc1nc2cc(Cl)ccc2[nH]1 | -13% | 2.29 |
| COc1cc(OC)c(NC(=O)c2ccc3[nH]ccc3c2)cc1F | 4% | -0.78 |
| CN1C(C)(C)CC(NC(=O)c2ccc(-c3cc(-c4cccc(C(F)(F)F)c4)n[nH]3)cc2)CC1(C)C | 40% | -7.08 |
| Cc1ccc(-c2cc(C(=O)N3CCC(CCn4ccnc4C)CC3)[nH]n2)o1 | 1% | -0.13 |
| CC(C)c1nnc2ccc(NC(=O)N3CCC(F)(F)C3)cn12 | -1% | 0.17 |
| COc1ccc(-c2cc3ncnc(NCC[C@@](O)(c4nccn4C)C(F)(F)F)c3s2)cc1 | -2% | 0.3 |

| SMILES | % Inhibition | Z score |
| --- | --- | --- |
| CN(CCN1CCOCC1)C(=O)[C@@H]1C=CCN1 | 1% | -0.21 |
| CCN(C)CCN(C)C(=O)c1ccc(-c2ccc3cnc(N)cc3c2)cc1 | 19% | -3.79 |
| CS(=O)(=O)c1cnc(NCCN2CCOCC2)nc1[C@H]1CCCNC1 | 2% | -0.33 |
| CN(C)c1nc(NC2CCN(Cc3cccnc3)CC2)ncc1F | -9% | 1.94 |
| CCN(C(=O)c1cc(C2CC2)nc2ccc(OC)cc12)[C@@H](C)CS(=O)(=O)CC | 1% | -0.13 |
| Cn1cc(-c2csc(CNc3ccccc3CN3CCC(CO)CC3)n2)cn1 | -10% | 2.03 |
| Cc1[nH]c2ccccc2c1CC(=O)Nc1c(F)cccc1OCc1ccccc1 | 0% | 0.01 |
| Cc1ccc(-c2ccnc(N3CCO[C@H](C(=O)N(C)CC(C)C)C3)n2)c(C)n1 | -12% | 2.05 |
| COc1cccc([C@H](C)N2CCN(C(=O)c3ccc(Cl)c4cccnc34)CC2)c1 | 12% | -2.5 |
| CC1CCCC(N2CCC(NCCCn3ccnc3)CC2)C1 (configuration not stated) | 15% | -2.57 |
| CN1CCC(NC2CC3CCCC(C2)N3Cc2ccccc2)CC1 (configuration not stated) | -1% | 0.27 |
| CC(C)[C@H]1NC(=O)[C@@H](C)NC(=O)CCCN(C(=O)CC[C@@H]2CCCN3CCCC[C@H]23)CCCNC1=O | -1% | 0.19 |
| CCN(C)CC1CCN(c2ccc(C#N)c(N3CCC(CN(C)CC)C3)n2)C1 (configuration not stated) | 14% | -3.01 |
| O=C(NCCc1c(C(F)(F)F)[nH]c2ccccc12)c1cc(-c2cccc(O)c2)on1 | 1% | -0.16 |
| CCc1nn(C)c(NC(=O)CCC(=O)N(C)C2CCCCC2)c1C | -11% | 2.17 |
| Cc1cc(NC(=O)Cn2cc(-c3ccc4[nH]ccc4c3)cn2)n(-c2ccccn2)n1 | -17% | 2.96 |
| CNc1nc(NCC2CCN(Cc3nc(C)c(C)o3)CC2)ncc1Br | -6% | 1.05 |
| COc1ccc2nc(C(=O)Nc3nccn3Cc3ccc(Br)cc3)ccc2c1 | -5% | 0.81 |
